# In all, about 380,000 compounds went through this assay and about 4,000 (1.1%) were called active. Inconclusive results, whose numbers are uncertain, are shown with a selection of clear calls. Calls come from the whole dose curve; as a rule, active = well fitted activation curve with a large enough effect; inconclusive = small, poorly fitted or top-dose-only effect; inactive = no such curve, though single readings can be large or run the other way. Potencies beside an inconclusive call are fits to weak or partial responses and may not hold up.
# Test: qHTS Assay to Identify Small Molecule Activators of BRCA1 Expression; note: nearly all actives have a fitted effect of over 80% in size
# Conditions: MCF7-BRCA1-FFLuc reporter, luminescence, 48 h; activation: at 46.1 µM (top of the series), scaled: vehicle 0%, 10 µM genistein 100% unless noted
# How it was run: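 MCF7-BRCA1-FFLuc, 2000 cells/well; 2 h attach, 37 °C/5% CO2; compound 48 h; luciferase substrate 15 min; luminescence end-point. Norm. to genistein 10 microM max activation and DMSO; concentration-response curves fitted.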
# Potency is the fitted concentration of half-maximal effect; tags give direction and shape of the fitted curve.
Compound,Potency,activation
O=C(NCCSc1ccccc1)c1cccnc1,active: 14.1 µM,
COc1ccc(C(=O)CC(=O)c2ccccc2O)cc1OC,active: 12.6 µM,
Cc1ccc(-n2ncc3c(NCc4ccccc4)ncnc32)cc1,"inconclusive: 1.26 µM [activator, partial curve, poor fit]",
CC(=O)NNC(=O)c1[nH]c2ccc(Cl)cc2c1-c1ccccc1,,inactive: -4.12%
COc1ccccc1/C=C/C(=O)N1CCC(c2ccccc2)C1 (configuration not stated),"inconclusive: 11.2 µM [activator, partial curve, poor fit]",
COc1cc(Cl)ccc1OCc1cc(C(=O)N(C)CC2CCCCO2)no1 (configuration not stated),"inconclusive: 10 µM [activator, partial curve, poor fit]",
CN(CC(=O)Nc1ccccc1Cl)CC(=O)Nc1sc2c(c1C(N)=O)CCC2,,inactive: -42.1%
CCN1CCC2(CC1)N=C(c1ccc(F)cc1)C(=S)N2C(=O)c1ccc(C(C)(C)C)cc1,,inactive: 2.73%
CN(C)C(=S)SCC(=O)Nc1ccc(Cl)cc1Cl,active: 10 µM,
O=C(Nc1ccccc1)NC1CCCCCCC1,"inconclusive: 2 µM [activator, partial curve, poor fit]",
COc1cccc(NC(=O)/C=C/c2ccccc2[N+](=O)[O-])c1,active: 3.16 µM,
Cc1ccc(-n2ncc3c(SCc4ccccc4)ncnc32)cc1,active: 4.47 µM,
O=C(Nc1nc2c(F)cccc2s1)c1ccco1,"inconclusive: 1.58 µM [activator, partial curve, poor fit]",
CC(=O)c1ccc(Nc2ncnc3c2oc2ccccc23)cc1,"inconclusive: 0.631 µM [activator, full curve, poor fit]",
COC(=O)N/N=C/c1cc(C)n(-c2ccccc2)c1C,"inconclusive: 35.5 µM [activator, single point]",
CS(=O)(=O)N1CCc2cc(C(=O)Nc3ccc(C(F)(F)F)cc3)ccc21,,inactive: -29.4%
Cc1ccc(NC(=O)CSc2nccn2Cc2ccccc2)cc1C,active: 8.91 µM,
O=C(N/N=C/c1ccncc1)c1cccs1,active: 12.6 µM,
COc1ccc(NC(=O)c2cc([N+](=O)[O-])ccc2O)cc1,,inconclusive: -86.2% [activator]
Fc1cccc2sc(N3CCCC3)nc12,"inconclusive: 11.2 µM [activator, partial curve, poor fit]",
CCOc1ccc(N/C=C/C(=O)c2ccccc2)c([N+](=O)[O-])c1,,inconclusive: -49.9% [activator]
CCn1c(C(=O)OC)cc2c1ccn2-c1ccc(F)cc1,"inconclusive: 12.6 µM [activator, single point]",

# Source: PubChem BioAssay AID624202 (National Center for Advancing Translational Sciences (NCATS), 2012)
